{"source": "paper PMC11006913", "origin": "cited, not measured here", "note": "The list shows a part of the results.", "data": [{"molecular_target": "HOXD13 Q325R (Homo sapiens) (UniProt P35453)", "sequence (P35453 263-343 Q325R)": "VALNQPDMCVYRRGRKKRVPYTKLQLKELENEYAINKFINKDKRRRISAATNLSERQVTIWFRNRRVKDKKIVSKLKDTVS", "details": "PBM; conditions not shown; double strand, one strand shown; scale: upbm affinity estimate (log intensity, higher = more binding, comparable within an allelic series)", "values": [{"sequence": "AGTACAAC [8-mer AGTACAAC]", "binding signal": 11.3}, {"sequence": "GCGTACAA [8-mer GCGTACAA]", "binding signal": 11.9}, {"sequence": "CGATAAAA [8-mer CGATAAAA]", "binding signal": 12.3}, {"sequence": "ATAAAACG [8-mer ATAAAACG]", "binding signal": 12.1}, {"sequence": "ATAAATAT [8-mer ATAAATAT]", "binding signal": 12}, {"sequence": "ATAAAAAT [8-mer ATAAAAAT]", "binding signal": 12.1}, {"sequence": "TGTACAAA [8-mer TGTACAAA]", "binding signal": 12.7}, {"sequence": "AGTACTAA [8-mer AGTACTAA]", "binding signal": 12}, {"sequence": "AGTACAAA [8-mer AGTACAAA]", "binding signal": 12.5}, {"sequence": "CGTACAAC [8-mer CGTACAAC]", "binding signal": 11.7}, {"sequence": "ATATAAAG [8-mer ATATAAAG]", "binding signal": 12}, {"sequence": "CTTATCAC [8-mer CTTATCAC]", "binding signal": 10.6}, {"sequence": "GTACTAAA [8-mer GTACTAAA]", "binding signal": 12.4}, {"sequence": "ATATTAAA [8-mer ATATTAAA]", "binding signal": 12.1}, {"sequence": "CCGTACAA [8-mer CCGTACAA]", "binding signal": 12}, {"sequence": "GTACAACA [8-mer GTACAACA]", "binding signal": 11.8}, {"sequence": "GGTACAAC [8-mer GGTACAAC]", "binding signal": 11.6}, {"sequence": "GTGATAAA [8-mer GTGATAAA]", "binding signal": 12.1}, {"sequence": "CTTAGTAC [8-mer CTTAGTAC]", "binding signal": 11.7}, {"sequence": "CTTTAGAC [8-mer CTTTAGAC]", "binding signal": 11.6}, {"sequence": "ATAAAATA [8-mer ATAAAATA]", "binding signal": 12.1}, {"sequence": "AATAAAAT [8-mer AATAAAAT]", "binding signal": 12}, {"sequence": "CTTTTGTA [8-mer CTTTTGTA]", "binding signal": 11.7}, {"sequence": "ATAAAATG [8-mer ATAAAATG]", "binding signal": 12.1}, {"sequence": "CATCTAAA [8-mer CATCTAAA]", "binding signal": 11.9}, {"sequence": "GATTAATA [8-mer GATTAATA]", "binding signal": 12}, {"sequence": "ATTTAGAC [8-mer ATTTAGAC]", "binding signal": 11.8}, {"sequence": "ATACAAAA [8-mer ATACAAAA]", "binding signal": 12.1}]}]}
